Some of the results follow. Repeats are few or missing, and single values can be far off.
Test system: UACC257
Assay: cell count relative to DMSO control; melanoma cells; higher = more viable cells
Settings: library dose: low library concentration; 72 h
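Also: cell number obtained by counting DAPI-stained nuclei in high-throughput microscope images with image analysis software, screen run in 1,536-well plates.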

Row | Compound | cell count
1 | Nc1ccn([C@@H]2O[C@H](CO)[C@@H](O)C2(F)F)c(=O)n1 [gemcitabine] + O=C1NC(=O)/C(=C/c2ccc(-c3ccc(F)cc3O)o2)S1 [AS252424] (first compound 0.0004 µM, partner dose 1 µM) | 83.1%
2 | Nc1ccn([C@@H]2O[C@H](CO)[C@@H](O)C2(F)F)c(=O)n1 [gemcitabine] + CC1(C)NC(=O)N(c2ccc([N+](=O)[O-])c(C(F)(F)F)c2)C1=O [nilutamide] (first compound 0.0004 µM, partner dose 1 µM) | 106%
3 | Nc1ncn([C@H]2C[C@H](O)[C@@H](CO)O2)c(=O)n1 [decitabine] + NCC(=O)Nc1ccc(-n2nc(C(F)(F)F)cc2-c2ccc3c(ccc4ccccc43)c2)cc1 [OSU03012] (first compound 0.1 µM, partner dose 1 µM) | 61.9%
4 | Nc1ccn([C@@H]2O[C@H](CO)[C@@H](O)C2(F)F)c(=O)n1 [gemcitabine] + CC(C)CCN1c2nc(Nc3cc(F)c(O)c(F)c3)ncc2N(C)C(=O)C1C [BID1870] (first compound 0.0004 µM, partner dose 0.2 µM) | 96.3%
5 | CC(=O)c1c(C)c2cnc(Nc3ccc(N4CCNCC4)cn3)nc2n(C2CCCC2)c1=O [palbociclib] + COc1cc2c(Oc3ccc4[nH]c(C)cc4c3F)ncnc2cc1OCCCN1CCCC1 [cediranib] (first compound 0.04 µM, partner dose 0.4 µM) | 72.6%
6 | Nc1nc(F)nc2c1ncn2[C@@H]1O[C@H](CO)[C@@H](O)[C@@H]1O [fludarabine] + O=C(O)C(=O)Nc1sc2c(c1C(=O)O)CCNC2 [TCS401] (first compound 0.2 µM, partner dose 1.66667 µM) | 85.6%
7 | CC(=O)c1c(C)c2cnc(Nc3ccc(N4CCNCC4)cn3)nc2n(C2CCCC2)c1=O [palbociclib] + Cn1cc(/C=C2\C(=O)Nc3cccnc32)c2ccccc21 [GW441756] (first compound 0.04 µM, partner dose 0.4 µM) | 50.2%
8 | Nc1ccn([C@@H]2O[C@H](CO)[C@@H](O)C2(F)F)c(=O)n1 [gemcitabine] + Oc1nc(-c2ccc(C(F)(F)F)cc2)nc2c1CSCC2 [XAV939] (first compound 0.0004 µM, partner dose 2 µM) | 117%
9 | CC(=O)c1c(C)c2cnc(Nc3ccc(N4CCNCC4)cn3)nc2n(C2CCCC2)c1=O [palbociclib] + Cc1cc([N+](=O)[O-])ccc1NS(=O)(=O)c1cc(Cl)ccc1Cl [FH535] (first compound 0.04 µM, partner dose 1 µM) | 70.8%
10 | CC(=O)O[C@@]12CO[C@@H]1C[C@H](O)[C@@]1(C)C(=O)[C@H](O)C3=C(C)[C@@H](OC(=O)[C@H](O)[C@@H](NC(=O)OC(C)(C)C)c4ccccc4)C[C@@](O)([C@@H](OC(=O)c4ccccc4)[C@H]21)C3(C)C [Docetaxel] + N#Cc1c(O)c2c(-c3ccc(-c4ccccc4O)cc3)csc2[nH]c1=O [A769662] (first compound 0.0001 µM, partner dose 2 µM) | 45.4%
11 | CC(=O)O[C@@]12CO[C@@H]1C[C@H](O)[C@@]1(C)C(=O)[C@H](O)C3=C(C)[C@@H](OC(=O)[C@H](O)[C@@H](NC(=O)OC(C)(C)C)c4ccccc4)C[C@@](O)([C@@H](OC(=O)c4ccccc4)[C@H]21)C3(C)C [Docetaxel] + CN(C)S(=O)(=O)c1ccc2c(c1)/C(=C/c1cc3c([nH]1)CCCC3)C(=O)N2 [SU6656] (first compound 0.0001 µM, partner dose 0.4 µM) | 36.4%
12 | Nc1ncn([C@H]2C[C@H](O)[C@@H](CO)O2)c(=O)n1 [decitabine] + CN(NC(=O)CC(=O)NN(C)C(=S)c1ccccc1)C(=S)c1ccccc1 [STA4783] (first compound 0.1 µM, partner dose 0.006 µM) | 106%
13 | CC(=O)c1c(C)c2cnc(Nc3ccc(N4CCNCC4)cn3)nc2n(C2CCCC2)c1=O [palbociclib] + NCC(=O)Nc1ccc(-n2nc(C(F)(F)F)cc2-c2ccc3c(ccc4ccccc43)c2)cc1 [OSU03012] (first compound 0.04 µM, partner dose 1 µM) | 73.1%
14 | CC(=O)O[C@@]12CO[C@@H]1C[C@H](O)[C@@]1(C)C(=O)[C@H](O)C3=C(C)[C@@H](OC(=O)[C@H](O)[C@@H](NC(=O)OC(C)(C)C)c4ccccc4)C[C@@](O)([C@@H](OC(=O)c4ccccc4)[C@H]21)C3(C)C [Docetaxel] + CC(C)CCN1c2nc(Nc3cc(F)c(O)c(F)c3)ncc2N(C)C(=O)C1C [BID1870] (first compound 0.0001 µM, partner dose 0.2 µM) | 56.4%
15 | CC(=O)c1c(C)c2cnc(Nc3ccc(N4CCNCC4)cn3)nc2n(C2CCCC2)c1=O [palbociclib] + O=C(CCCCCCC(=O)Nc1ccccc1)NO [vorinostat] (first compound 0.04 µM, partner dose 0.08 µM) | 69.3%
16 | CC(=O)c1c(C)c2cnc(Nc3ccc(N4CCNCC4)cn3)nc2n(C2CCCC2)c1=O [palbociclib] + CC1(C)NC(=O)N(c2ccc([N+](=O)[O-])c(C(F)(F)F)c2)C1=O [nilutamide] (first compound 0.04 µM, partner dose 1 µM) | 65.7%
17 | Nc1ncn([C@H]2C[C@H](O)[C@@H](CO)O2)c(=O)n1 [decitabine] + O=C(O)c1ccc(-c2c[nH]c3ncc(-c4ccccc4)cc23)cc1C1CCCC1 [GSK650394] (first compound 0.1 µM, partner dose 0.16 µM) | 73.3%
18 | CC(=O)O[C@@]12CO[C@@H]1C[C@H](O)[C@@]1(C)C(=O)[C@H](O)C3=C(C)[C@@H](OC(=O)[C@H](O)[C@@H](NC(=O)OC(C)(C)C)c4ccccc4)C[C@@](O)([C@@H](OC(=O)c4ccccc4)[C@H]21)C3(C)C [Docetaxel] + C=CCn1c(=O)c2cnc(Nc3ccc(N4CCN(C)CC4)cc3)nc2n1-c1cccc(C(C)(C)O)n1 [MK1775] (first compound 0.0001 µM, partner dose 0.02 µM) | 47.3%
19 | Nc1nc(F)nc2c1ncn2[C@@H]1O[C@H](CO)[C@@H](O)[C@@H]1O [fludarabine] + Cc1cc([N+](=O)[O-])ccc1NS(=O)(=O)c1cc(Cl)ccc1Cl [FH535] (first compound 0.2 µM, partner dose 1 µM) | 97.2%
20 | CC(=O)O[C@@]12CO[C@@H]1C[C@H](O)[C@@]1(C)C(=O)[C@H](O)C3=C(C)[C@@H](OC(=O)[C@H](O)[C@@H](NC(=O)OC(C)(C)C)c4ccccc4)C[C@@](O)([C@@H](OC(=O)c4ccccc4)[C@H]21)C3(C)C [Docetaxel] + O=S(=O)(c1ccccc1)N(CC(F)(F)F)c1ccc(C(O)(C(F)(F)F)C(F)(F)F)cc1 [T0901317] (first compound 0.0001 µM, partner dose 1.4 µM) | 37.2%
21 | CC(=O)c1c(C)c2cnc(Nc3ccc(N4CCNCC4)cn3)nc2n(C2CCCC2)c1=O [palbociclib] + CC(C)(C)c1cnc(CSc2cnc(NC(=O)C3CCNCC3)s2)o1 [SNS-032] (first compound 0.04 µM, partner dose 0.01 µM) | 92.3%
22 | CC(=O)O[C@@]12CO[C@@H]1C[C@H](O)[C@@]1(C)C(=O)[C@H](O)C3=C(C)[C@@H](OC(=O)[C@H](O)[C@@H](NC(=O)OC(C)(C)C)c4ccccc4)C[C@@](O)([C@@H](OC(=O)c4ccccc4)[C@H]21)C3(C)C [Docetaxel] + CO[C@@H]1[C@H](N(C)C(=O)c2ccccc2)C[C@H]2O[C@]1(C)n1c3ccccc3c3c4c(c5c6ccccc6n2c5c31)C(=O)NC4 [Midostaurin] (first compound 0.0001 µM, partner dose 0.08 µM) | 29.6%
23 | Nc1nc(F)nc2c1ncn2[C@@H]1O[C@H](CO)[C@@H](O)[C@@H]1O [fludarabine] + COc1ccc2c(c1)CCC1C2CCC2(C)C(NCCCCCCN3C(=O)C=CC3=O)CCC12 [U73122] (first compound 0.2 µM, partner dose 0.4 µM) | 85.8%
24 | Nc1ccn([C@@H]2O[C@H](CO)[C@@H](O)C2(F)F)c(=O)n1 [gemcitabine] + O=c1cc(-c2cccc3c2Sc2ccccc2S3)oc(N2CCOCC2)c1 [KU55933] (first compound 0.0004 µM, partner dose 1 µM) | 78.6%
25 | CC(=O)c1c(C)c2cnc(Nc3ccc(N4CCNCC4)cn3)nc2n(C2CCCC2)c1=O [palbociclib] + CO[C@@H]1[C@H](N(C)C(=O)c2ccccc2)C[C@H]2O[C@]1(C)n1c3ccccc3c3c4c(c5c6ccccc6n2c5c31)C(=O)NC4 [Midostaurin] (first compound 0.04 µM, partner dose 0.08 µM) | 54.6%
26 | Nc1ncn([C@H]2C[C@H](O)[C@@H](CO)O2)c(=O)n1 [decitabine] + CO[C@@H]1[C@H](N(C)C(=O)c2ccccc2)C[C@H]2O[C@]1(C)n1c3ccccc3c3c4c(c5c6ccccc6n2c5c31)C(=O)NC4 [Midostaurin] (first compound 0.1 µM, partner dose 0.08 µM) | 75.4%
27 | CC(=O)c1c(C)c2cnc(Nc3ccc(N4CCNCC4)cn3)nc2n(C2CCCC2)c1=O [palbociclib] + O=C(O)C(=O)Nc1sc2c(c1C(=O)O)CCNC2 [TCS401] (first compound 0.04 µM, partner dose 1.66667 µM) | 77.7%

Reference: the supplement of paper PMC4604168 (melanoma cell lines)
